According to patent US20220073613A1, “ACTIVATABLE MASKED ANTI-CTLA4 BINDING PROTEINS” (Xilio Development, Inc., priority 2018, published 2022):
Several values for one entry are separate records, joined by “and”; a condition that tells them apart may be missing. Identical values can stand only once.

Legend:
[1] = In vivo cleavage of masked antibodies in plasma of MC38 tumor-bearing mice, Western blot; design: species or system C57BL/6J mice
Procedure: MC38 cells (1×10^6) were injected subcutaneously into seven-eight week old female C57BL/6J mice subcutaneously. On day 0, the mice were randomized based on tumor volume measurements and injected intraperitoneally with 200 μg of Antibody 2 constructs. Blood was collected via RO sinus on days two and four and processed with LiHep for plasma isolation. On day seven, blood was collected via cardiac puncture and process with LiHep for plasma isolation. Plasma was aliquoted and stored at −80 C until Western blot analysis. Standard samples where the masked antibody was treated in the presence or absence of protease in vitro were included as positive controls. For Western blot analysis, plasma samples were diluted in PBS, then in Laemmli Sample Buffer and βME. Samples were heated at 95° C. then loaded on a Criterion TGX Stain-free Precast gel. SDS-PAGE was performed at 200 V for forty-two minutes. Protein was transferred to nitrocellulose membrane and blocked in 1×TBS with 1% Casein Blocker for one hour at room temperature shaking. The membrane was probed with HRP-conjugated Rb mAb to human Kappa Light Chain [clone EPR5367-8], diluted 1:10,000 in Casein Blocker, overnight at 4° C. shaking. The membrane was washed three times with PBS-Tween and developed with SuperSignal ELISA Pico Chemiluminescent Substrate. Raw data was analyzed with ImageLab software.
In vivo experiment was performed in two cohorts across two weeks, with Antibody 2-14 included in both cohorts. Antibodies that were tested include Antibody 2-14, Antibody 2-15, Antibody 2-16, Antibody 2-17, Antibody 2-18, Antibody 2-19, Antibody 2-20, and Antibody 2-21. Antibody 2-15 includes a cleavable peptide sequence that is non-cleavable, for use as a negative control.

[2] = tested on: Ki67+ cells in CD4+ cells; assay: Pharmacodynamic effects in cynomolgus monkeys; details: cynomolgus monkey, in vivo
Procedure: In a first set of experiments, cynomolgus monkeys were administered ipilimumab, Antibody 2-6, Antibody 2-10, or an isotype control, and pharmacodynamic (PD) effects were assessed by measuring the percentage (%) of Ki67+ cells in CD4+ cells. In a second set of experiments, cynomolgus monkeys were administered Antibody 2-6, Antibody 2-10, Antibody 2-14, Antibody 2-16, or an isotype control, and pharmacodynamic effects were assessed by measuring the percentage (%) of Ki67+ cells in CD4+ cells.

[3] = tested on: murine tumor, tissue, and plasma conditioned media; assay: Ex vivo cleavage in murine tumor, tissue, and plasma, CTLA4 ELISA; assay type: in vitro ADME
Procedure: In another study, ex vivo cleavage in murine tumor, tissue, and plasma was assessed using a CTLA4 ELISA assay. This included the following murine models: C57/B16 (N=9), MC38 in wild type mice (N=9), MC38 in hCTLA4 mice (N=5), MB49 in wild type mice (N=6), MCA205 in wild type mice (N=4), and B16 in wild type mice (N=4). Cleavage in tumors, spleen, liver, kidney, and plasma was assessed. Plasma samples were pooled. Frequency of cleavage and the percentage of the molecule cleaved (median) were calculated.

[4] = In vivo cleavage detection in tumor, liver, kidney, spleen and plasma (western blot) and CTLA4 binding of recovered antibody; design: species or system B-hCTLA-4 transgenic mice; details: for percentage (%) of product cleaved: SDS-PAGE densometric intensity, three lanes
Procedure: B-hCTLA-4 transgenic female mice were purchased from Biocytogen and were 8-10 weeks old at the start of study. MC38 colorectal tumor cells (5×10^5 cells per mouse), MB49 bladder cancer cells (1×10^6 cells per mouse) or MCA205 fibrosarcoma cells (1×10^6 cells per mouse) were subcutaneously into the right flank of each mouse. Upon reaching ˜250-500 mm^3 sized tumors (day 0), the mice received a single 10 mg/kg intraperitoneal dose of indicated antibodies. Tumor, liver, kidney, spleen and plasma harvested on day 4 for analysis of cleavage by western blot.
For plasma samples, a direct western blot approach is utilized by separating equal volumes of denatured plasma (1-2 μL input) on a gradient criterion precast gel (BioRad). Separated proteins were then transferred into a nitrocellulose membrane using Turbo Transblot system (BioRad). Membranes were than developed using standard methods for anti-human kappa light chain reactivity with an HRP conjugated antibody (ab202549). Cleavage is assessed visually as the cleaved light chain migrates lower than the un-cleaved light chain with a mass difference of 2 kD.
Protein lysates from tumor, liver, spleen and kidney were generated using Tissue Lyser II (Qiagen) bead homogenizer in RIPA buffer (Pierce, 87788) supplemented with protease and phosphatase inhibitors (Thermo Fisher, 78442). Protein concentrations were determined by BCA assay and 3 mgs of tissue lysate was subjected to immunoprecipitation with biotin conjugated anti-human kappa light chain antibody (LSBio, LS-C351451-500) and streptavidin magnetic beads (Pierce, 88816). Proteins were eluted in 50 μL 10 mM Glycine (pH 2) and neutralized with 1M Tris (pH 8) prior to western blot detection of human kappa light chain as described above.
Studies were also carried out where IgG levels of each antibody administered to MB49-bearing mice was quantified by an ELISA assay and then each sample was assayed in a 3-fold dilution series starting at 1 μg/mL for spleen or 0.04 μg/mL for kidney and liver tissue, on a CTLA4-coated MSD plate to assess CTLA4 binding. These studies included a non-masked parental antibody (Antibody 2-6), masked and cleavable antibodies (e.g., Antibody 2-14 and Antibody 2-16), and a masked but non-cleavable antibody (Antibody 2-10). FIG. 24D is an SDS-PAGE analysis showing the percentage (%) of product cleaved for Antibody 2-14. […] FIG. 24F depicts a heat map of the in vitro cleavage of cleavable peptide substrates by a panel of exemplary proteases.

B1: Antibody 2-14: masked Antibody 2-6: mask CPGKGLPSC, cleavable peptide VPLSLY; SEQ ID NO: 358 and 421 (protein)
light: ACPGKGLPSCGGGSSGGSGVPLSLYSGGEIVLTQSPDFQSVTPKEKVTITCSANSALSYMYWYQQKPDQSPKLWVHGTSNLASGVPSRFSGSGSGTDFTLTINSLEAEDAATYYCHHWSNTQWTFGGGTKVEIKRTVAAPSVFIFPPSDEQLKSGTASVVCLLNNFYPREAKVQWKVDNALQSGNSQESVTEQDSKDSTYSLSSTLTLSKADYEKHKVYACEVTHQGLSSPVTKSFNRGEC
heavy: QVQLVQSGAEVKKPGSSVKVSCKASGYTFTNYFMNWVRQAPGQGLEWMGRVDPEQGRADYAEKFKKRVTITADKSTSTAYMELSSLRSEDTAVYYCARRAMDNYGFAYWGQGTLVTVSS[human IgG1 constant region with changes left out here]
- activation percentage in MC38-bearing mice as compared to healthy non-tumor-bearing mice ([1]; 2-way ANOVA): significantly greater
- activation in vivo (cleavage in plasma) ([1]; MC38-bearing mice, 200 μg i.p., days 2, 4, 7): activated in vivo
- peripheral PD effects, percentage (%) of Ki67+ cells in CD4+ cells [2]: reduced PD effects as compared to the unmasked parental Antibody 2-6
- Percentage (%) cleaved molecule ([3]; B16-wt, Kidney (n = 4)): 16%
- Percentage (%) cleaved molecule ([3]; B16-wt, Liver (n = 4)): 2%
- Percentage (%) cleaved molecule ([3]; B16-wt, Plasma (n = 1)): 0%
- Percentage (%) cleaved molecule ([3]; B16-wt, Spleen (n = 4)): 2%
- Percentage (%) cleaved molecule ([3]; B16-wt, Tumor (n = 4)): 0%
- Percentage (%) cleaved molecule ([3]; C57/B16-wt, Kidney (n = 9)): 7%
- Percentage (%) cleaved molecule ([3]; C57/B16-wt, Liver (n = 9)): 2%
- Percentage (%) cleaved molecule ([3]; C57/B16-wt, Plasma (n = 2)): 6%
- Percentage (%) cleaved molecule ([3]; C57/B16-wt, Spleen (n = 9)): 3%
- Percentage (%) cleaved molecule ([3]; MB49-wt, Kidney (n = 6)): 9%
- Percentage (%) cleaved molecule ([3]; MB49-wt, Liver (n = 6)): 0%
- Percentage (%) cleaved molecule ([3]; MB49-wt, Spleen (n = 6)): 3%
- Percentage (%) cleaved molecule ([3]; MB49-wt, Tumor (n = 6)): 1%
- Percentage (%) cleaved molecule ([3]; MC38-hCTLA4, Kidney (n = 5)): 25%
- Percentage (%) cleaved molecule ([3]; MC38-hCTLA4, Liver (n = 5)): 2%
- Percentage (%) cleaved molecule ([3]; MC38-hCTLA4, Plasma (n = 1)): 1%
- Percentage (%) cleaved molecule ([3]; MC38-hCTLA4, Spleen (n = 5)): 7%
- Percentage (%) cleaved molecule ([3]; MC38-hCTLA4, Tumor (n = 5)): 0%
- Percentage (%) cleaved molecule ([3]; MC38-wt, Kidney (n = 9)): 8%
- Percentage (%) cleaved molecule ([3]; MC38-wt, Liver (n = 9)): 2%
- Percentage (%) cleaved molecule ([3]; MC38-wt, Plasma (n = 1)): 1%
- Percentage (%) cleaved molecule ([3]; MC38-wt, Spleen (n = 9)): 4%
- Percentage (%) cleaved molecule ([3]; MC38-wt, Tumor (n = 9)): 1%
- Percentage (%) cleaved molecule ([3]; MCA205-wt, Liver (n = 4)): 0%
- Percentage (%) cleaved molecule ([3]; MCA205-wt, Plasma (n = 1)): 0%
- Percentage (%) cleaved molecule ([3]; MCA205-wt, Spleen (n = 4)): 0%
- Percentage (%) cleaved molecule ([3]; MCA205-wt, Tumor (n = 4)): 2%
- Frequency of cleavage ([3]; kidney conditioned media of B16-wt): 100%
- Frequency of cleavage ([3]; kidney conditioned media of MB49-wt): 100%
- Frequency of cleavage ([3]; kidney conditioned media of MC38-hCTLA4): 100%
- Frequency of cleavage ([3]; kidney conditioned media of MC38-wt): 100%
- Frequency of cleavage ([3]; kidney conditioned media of MCA205-wt): 100%
- Frequency of cleavage ([3]; tumor conditioned media of MB49-wt): 17%
- Frequency of cleavage ([3]; tumor conditioned media of MCA205-wt): 25%
- binding to CTLA4 of antibody isolated from plasma, kidney, liver, or spleen ([4]; MB49-bearing B-hCTLA4 transgenic mice, CTLA4-coated MSD plate): binding comparable to Antibody 2-6 in liver and spleen and greater binding than Antibody 2-10 in plasma, kidney, liver, and spleen
- cleavage products in liver tissue ([4]; MB49 bladder cancer, single 10 mg/kg i.p., day 4): strongly detected
- cleavage products in liver tissue ([4]; MC38 colorectal cancer, single 10 mg/kg i.p., day 4): strongly detected
- cleavage products in tumors and in liver tissue ([4]; MCA205 fibrosarcoma, single 10 mg/kg i.p., day 4): strongly detected
- percentage (%) of product cleaved ([4]; kidney): 64% and 60% and 54%
- percentage (%) of product cleaved ([4]; liver): 75% and 59% and 77%
- percentage (%) of product cleaved ([4]; plasma): 28% and 39% and 35%
- percentage (%) of product cleaved ([4]; spleen): 69% and 73% and 72%
